According to the supplement of paper PMC11417369:
± gives the standard deviation of the averaged measurements. The list shows a part of the results.

Each sequence was assayed on PfAP2-I AP2 domain 3 (GST-tagged) (assay: gcPBM binding intensity (ln(normalized median fluorescence intensity)); higher = stronger DNA binding).
Method in brief: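 Binding intensity is defined as the maximum Masliner-normalised natural-log median intensity across replicate spots for either probe orientation. It was measured on an Agilent 4 × 180k array of primer-extended double-stranded 36-bp intergenic genomic probes and negative controls, to which GST-tagged P. falciparum DNA-binding domains made in E. coli were applied for 1 h in 1× PBS with 1% milk, 0.2 mg/ml BSA, 0.5% salmon testes DNA and 0.03% Triton X-100. Detection was by Alexa488 anti-GST antibody and scanning at 488 nm.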

| Sequence | gcPBM binding intensity (ln) |
| --- | --- |
| AACAGACATAGAAACACACATACATACATACATACA [CACACA_site2479] | 8.96 ± 0.45 |
| AAATAAATATATAATACACACAAAAATATAAAATGG [CACACA_site5943] | 8.06 ± 0.53 |
| TATAACTTTTTTATTACACACCTATGTAATATTATA [CACACA_site944] | 7.95 ± 0.3 |
| ATGTTTTATATTTTTTTTTTGTTTGCTTGTTTCCTC [CACACA_negctrl_site870] | 7.78 ± 0.83 |
| AAGGGAAATATTGAAACACACACGAACCCACGTATT [CACACA_site252] | 7.67 ± 1.1 |
| TTATAATATTAATGTGCACACAATTAAAATATTATA [CACACA_site2046] | 10.6 ± 0.26 |
| TACTGTGTTTTGGTTGTACACACGCTACATTATATA [CACACA_site8863] | 8.27 ± 0.59 |
| TTCTTAAATGTAAATGTATATGTATTAAAAAGAGAA [TGCATGCA_negctrl_site597] | 7.87 ± 0.49 |
| ATAGTATACAGACACACACACACACCCATATATATA [CACACA_site1736] | 8.25 ± 0.88 |
| AGGATATAAATATTCACACACACATGGAGATATATA [CACACA_site6317] | 7.64 ± 0.5 |
| TATACATTTATGTACACACACATATATGTATATTTA [CACACA_site2966] | 7.67 ± 0.37 |
| AATAAATATCAATACACACACACAAAAGTGAATAAA [CACACA_site3763] | 7.67 ± 0.59 |
| ACAATTTTATTTAAAGTGCATGTAAAATTAAAACTT | 9.11 ± 0.3 |
| AAAGGAAGAAAAAATAGTACATATATATATATATAA [XGTACX_site766] | 7.88 ± 0.4 |
| GTTAAGGGTATATATACACACATATGTAATACATGA [CACACA_site5650] | 7.83 ± 0.6 |
| TCCATCCACATATATGTACACACATATATATATATA [CACACA_site8970] | 9.31 ± 0.61 |
| ACATGTGAAGGGAACATAAATTGGGGTTTTATATTG [XGTACX_negctrl_site508] | 7.95 ± 0.75 |
| AAATTATAAATAATTTGTACATAAAAATTGGTAAAG [XGTACX_site5197] | 7.7 ± 0.64 |
| GAATATAAAAAAGAATGTACTTGAACAGTCCTAAAA [XGTACX_site745] | 7.45 ± 0.75 |
| TTTTGTTAGTTTTTTTTCTTATATTACATTTTCACG [CACACA_negctrl_site1466] | 7.78 ± 0.76 |
| TTTTTTATATTAAATGAAGAATATACAAAATTTTAA [CACACA_negctrl_site558] | 7.62 ± 0.28 |
| ATGTAGTCTCAAGACTGTACAAACAAGTAAATAAAA [XGTACX_site4120] | 7.76 ± 0.74 |

| Sequence | gcPBM binding intensity (ln) |
| --- | --- |
| AAGGAGAAATAAATATTAAAAAATTTATATATATAT [CACACA_negctrl_site1801] | 9.01 ± 0.35 |
| TTCTTTTTTAACAACAAAAAAAAAAAAAAAAAAAAA [TGCATGCA_negctrl_site87] | 8.26 ± 1 |
| TAATATTGCAAATATAAAAAAAAATAAACCATATAT [XGTACX_negctrl_site458] | 8.17 ± 0.48 |
| TTTTTTGCTTTCAACACACATACAATCTATATAATC [CACACA_site4125] | 8.01 ± 0.75 |
| TAAACCTGTAGAGATGCATGCATTGTTAACATGGTG [TGCATGCA_site515] | 7.85 ± 0.76 |
| AAAAAATTGACTAATGCACACAATTACATATATATA [CACACA_site1689] | 10.5 ± 0.44 |
| AATTGTTCTATGATTTGTACACACTTTTTTTTAAAA [XGTACX_site5984] | 8.15 ± 0.52 |
| ATTATAAATACACGCACACACACTTATATATATATA [CACACA_site5776] | 9.48 ± 0.31 |
| CAATTTTTCTATCATTGTACTTTTATATAATAGTGT [XGTACX_site1810] | 7.79 ± 0.49 |
| CATTATAAAAAATAAAAAAGAAATAATTGTATATGC [CACACA_negctrl_site478] | 7.77 ± 0.68 |
| ATGAAATATATTATATGTACATATTTATTTTTTATA [XGTACX_site7319] | 7.59 ± 0.3 |
| ATTTTTTACGTATAGTACAAAGTTTTATGATACATA [CACACA_negctrl_site965] | 7.62 ± 0.57 |
| AAATAGTAAATAAGGGGTACAAAAAAAAAAAAAAAA [XGTACX_site8362] | 8.15 ± 0.37 |
| AAATGCTAAAAATAGAGTACAGATAACGAAAAGTGT [XGTACX_site8830] | 8.38 ± 0.57 |
| TTTTTATTTAATATTTTAAAAAAAAATCATTTTTAA [XGTACX_negctrl_site207] | 7.24 ± 0.52 |
| TATATAGTAATATATACACACACTTGTCTTGTAAAA [CACACA_site990] | 7.62 ± 0.52 |
| TTATAAAAATAATATCGTACAAATGATAAAGATTAA [XGTACX_site4893] | 7.67 ± 0.47 |
| ACATATATATATATATATAATATTTTATATTTATTA [CACACA_negctrl_site713] | 7.97 ± 0.41 |
| TGAATTCGTCAAAAGCGTACATATAATATCTTCTTG [XGTACX_site8842] | 7.79 ± 0.58 |
| ATATTTTTTTATAAATGTACAAAAATAATATTGCAT [XGTACX_site7399] | 7.89 ± 0.39 |
| AAAATAATGTTTATATGTACATATATATATATATAT [XGTACX_site8815] | 9.28 ± 0.37 |
| CCATTTACCCTTGCCATGCACACTTTTTTATAGAAA [CACACA_site3505] | 8.79 ± 0.6 |

| Sequence | gcPBM binding intensity (ln) |
| --- | --- |
| TATCTTATTTTAAAAGTGCATGGAAAGGGGTTTTTG | 8.79 ± 0.3 |
| TGTATAAGTGCCGTTATACACACGTTATATAAATAT [CACACA_site438] | 8.47 ± 0.34 |
| TATATATACATATACACACACACACCCATATATATA [CACACA_site2246] | 8.37 ± 0.71 |
| ATAAATTTATATACTTGTACATATATATATTACATA [XGTACX_site6697] | 7.92 ± 0.38 |
| ACTATCATTTTTTTAACACACAAAAAAAATAAAATA [CACACA_site3519] | 8.08 ± 0.24 |
| TTTTAGCACTTATTATAAGATATCAAAAAGATGGGT [XGTACX_negctrl_site325] | 8.76 ± 0.092 |
| TTTGAAATAAAAAGGTGTACACTCGATTAATAAATA [XGTACX_site6943] | 8.07 ± 0.33 |
| AAATAATATATGAATGCACACAGTAAAAATTAAAGA [CACACA_site2252] | 9.31 ± 0.22 |
| AAAATTTCAATAAATACACACATATATATATATATT [CACACA_site1685] | 7.63 ± 0.45 |
| AAGAATACACCACGCACACACACTTGAGAAAAAATA [CACACA_site3828] | 8.36 ± 0.29 |
| AAGATTAATATTTTATGTACATATGTAATATATATG [XGTACX_site4367] | 7.8 ± 0.35 |
| ATATTTTTATGATGTATCCAAGAAATGGAACTATAT [CACACA_negctrl_site1268] | 7.71 ± 0.35 |
| ATTTTAGATATCCTGCGTACACAAATTGCTTTATTT [XGTACX_site7149] | 8.47 ± 0.61 |
| ATATATACCTAAGACACACACATATAGATTTATATA [CACACA_site6498] | 7.84 ± 0.58 |
| TTCTTTGTGGTATAGATACACACTATATTAATATGA [CACACA_site2150] | 8.19 ± 0.49 |
| TTTAATAATATAATGTGTACTTAAAAATTTATATAT [XGTACX_site5821] | 7.86 ± 0.31 |
| TCATAAATTAATAATACATGCATAATATTAAAATGT [TGCATGCA_site5] | 7.8 ± 0.51 |
| AAAAATATATAAGAGAGTACATAAAATAAATTAATT [XGTACX_site1534] | 7.67 ± 0.69 |
| TTTACATCCAAAAACTGTACACTTATTTTATAATTC [XGTACX_site5332] | 7.88 ± 0.34 |
| ATATATATAATATGTAGTACTTTCCTCTCAAATCAT [XGTACX_site7766] | 8.18 ± 0.35 |
| ATCAAAAATATAAAAAATATAAACAATTTATTATCA [CACACA_negctrl_site768] | 7.32 ± 0.47 |
| AATAAGTAACAAAATACACACATATATATAATTATA [CACACA_site1837] | 7.66 ± 0.55 |

| Sequence | gcPBM binding intensity (ln) |
| --- | --- |
| GAATCATATTTAAACACACATACATATATATATATA [CACACA_site3352] | 9.11 ± 0.48 |
| AAAAAATACAAGAAATGTACTCAAGCATATATTAAT [XGTACX_site3325] | 7.81 ± 0.64 |
| TTTTTACTATAATTAAAATTAACAAAAGAAAATGAT [GTGCAC_negctrl_site52] | 7.59 ± 0.57 |
| TTCATTATTATTAACATACACACGTGTTATATACAC [CACACA_site4112] | 8.05 ± 0.54 |
| TTCATTTTTTAAGCATCACACACGAAAGAACAAAGT [CACACA_site1122] | 8.31 ± 0.53 |
| TTTCCAAATTGTTGACGGACACTCACGAATAGTTAT [XGTACX_site5720] | 7.87 ± 0.42 |
| CATATGTATATGACTACACACAAGGGTGTACATATA [CACACA_site1164] | 7.93 ± 0.21 |
| ACATGAAGATATTTTTGTCCGTACAAATTCATATGA [XGTACX_site1837] | 7.72 ± 0.35 |
| AGTATATCAAAATACATACACACATTTGTATATACA [CACACA_site2697] | 7.71 ± 0.56 |
| GTCCTCATCCACTATGCACACAAAAAAGAAATACAC [CACACA_site9131] | 9.825 ± 0.078 |
| TTTTTTTTTTTTTTTTGTACACAAATTTATTGTCTA [XGTACX_site2680] | 8.13 ± 0.79 |
| TACGTTATGTTGAATAGTACAATTTGGTGAACAGGT [XGTACX_site1729] | 8.26 ± 0.61 |
| TCATTTTATTATTCTACACACTTATCTATAATTACA [CACACA_site6168] | 8.21 ± 0.45 |
| TTACATGTACAAAAGTTGCACTTCATACACTTTTAT | 8.85 ± 0.42 |
| ATTCTATATATGTGCACACAAAAGATATATATATAT [CACACA_site2124] | 10.3 ± 0.18 |
| CGAAGGTTTGGCCATGCATGTTATAAGAATATATGT [TGCATGCA_site441] | 7.65 ± 0.79 |
| TCATTTCAATACACAAGTACGTATATGGTTATATTG [XGTACX_site6021] | 7.71 ± 0.45 |
| AATATAAAATAATGCACACATAAACAAAAAATCAAA [CACACA_site1371] | 10.9 ± 0.88 |
| TATCTTTTTACAATAGTGCATATGTTATCATTAATA [GTGCAC_site9489] | 9.54 ± 0.18 |
| TTTATTTATTAATACACACACACACCCAGACAAAAT [CACACA_site4292] | 8.77 ± 0.13 |
| AGATATATAAATATTACACACTATATATCTATTTAT [CACACA_site6466] | 7.83 ± 0.6 |
| ATTTGCCCATTTAATTAACACACAAATGTTTATATT [CACACA_site8145] | 8.24 ± 0.61 |
